Assay results: the supplement of paper PMC12217912
The other results are listed elsewhere or left out. Sequences were assembled here from the parent chain. Values near 0.05 are background.

B1: TEV protease; numbered along this chain (parent)
chain: MGESLFKGPRDYNPISSSICHLTNESDGHTTSLYGIGFGPFIITNKHLFRRNNGTLVVQSLHGVFKVKDTTTLQQHLVDGRDMIIIRMPKDFPPFPQKLKFREPQREERICLVTTNFQTKSMSSMVSDTSCTFPSGDGIFWKHWIQTKDGQCGSPLVSTRDGFIVGIHSASNFTNTNNYFTSVPKNFMELLTNQEAQQWVSGWRLNADSVLWGGHKVFMVKPEEPFQPVKEATQL

Variants of: B1
Experiment: raw area under fraction-flipped curve 0-4 h after induction (AUC4h, not background-subtracted), DNA-recorder readout of cleavage of the substrate (dimensionless); higher = more cleavage of the substrate by the protease variant
Conditions: temperature: 34 °C; time window: 0-4 h after rhamnose induction
Method: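 In vivo DNA recorder in E. coli TOP10(DE3) ΔrhaA at 34 °C. Each TEVp single-site mutant (parent TEVp 0) is paired with a single-site variant of the 7-mer TEVs (canonical ENLYFQ|S). The substrate sits between flexible linkers in a Bxb1-sfGFP-TEVs-SsrA fusion, so cleavage stabilises Bxb1 and speeds flipping of a recombination array, read by NGS. The value is the raw area under the fraction-flipped curve over 0-4 h after rhamnose induction (AUC4h), with ≥20 reads per time point. It is not background-subtracted; inactive controls average about 0.047.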
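Further: Bxb1 expression induced with 0.2% (w/v) L-rhamnose at OD600 near 0.5, cultures sampled hourly, flipped fraction per protease–substrate barcode pair counted by paired-end Illumina sequencing.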

| Variant | area with substrate ENLYCQS | area with substrate ENLYDQS | area with substrate ENLYEQS | area with substrate ENLYHQS | area with substrate ENLYIQS | area with substrate ENLYKQS | area with substrate ENLYLQS | area with substrate ENLYMQS | area with substrate ENLYNQS | area with substrate ENLYPQS | area with substrate ENLYQQS | area with substrate ENLYRQS | area with substrate ENLYTQS | area with substrate ENLYVQS | area with substrate ENLYWQS | area with substrate ENLYAQS | area with substrate ENLYGQS | area with substrate ENLYSQS | area with substrate ENLYYQS |
| --- | --- | --- | --- | --- | --- | --- | --- | --- | --- | --- | --- | --- | --- | --- | --- | --- | --- | --- | --- |
| F49N | 0.0491 | 0.0487 | 0.0532 | 0.0596 | 0.0553 | 0.0596 | 0.0697 | 0.0628 | 0.0552 | 0.0529 | 0.0528 | 0.0443 | 0.0562 | 0.0536 | 0.0701 |  |  |  |  |
| K221P | 0.0622 | 0.131 | 0.0486 | 0.0639 | 0.0823 | 0.0503 | 0.0645 | 0.0669 | 0.0597 | 0.0656 | 0.0617 |  | 0.0714 | 0.11 | 0.0702 | 0.115 | 0.0768 | 0.0727 |  |
| R204Y | 0.0975 | 0.0636 | 0.103 | 0.0722 | 0.123 | 0.0476 | 0.0965 | 0.0867 | 0.0727 | 0.0834 | 0.0583 | 0.0695 | 0.0778 |  | 0.079 | 0.0757 | 0.0698 | 0.087 | 0.0832 |
| D208A |  | 0.064 |  |  | 0.0625 |  |  |  |  | 0.062 |  |  |  | 0.0569 |  | 0.0714 |  |  |  |
| S209Q |  | 0.0554 | 0.0909 | 0.0644 | 0.13 | 0.0709 |  | 0.0932 | 0.0728 | 0.0722 | 0.0624 | 0.0719 |  | 0.139 | 0.0222 | 0.0686 |  |  |  |
| S209T | 0.0649 |  | 0.0805 | 0.0652 | 0.0967 |  |  |  | 0.0819 | 0.0802 |  |  |  |  |  | 0.0608 |  |  |  |
| H47T | 0.0704 | 0.0637 | 0.0597 | 0.0661 | 0.0564 | 0.072 | 0.0528 | 0.0748 | 0.0556 | 0.0434 | 0.0515 | 0.0704 | 0.0691 | 0.0626 | 0.0462 |  |  | 0.0755 | 0.0693 |
| W212I |  |  | 0.0762 | 0.0794 |  |  |  | 0.0807 | 0.0726 | 0.0762 | 0.064 | 0.074 |  | 0.163 |  | 0.0947 | 0.0575 |  | 0.0821 |
| W212T |  |  | 0.0624 | 0.0612 | 0.0697 | 0.0594 | 0.06 |  | 0.0712 | 0.0679 |  |  | 0.0745 |  | 0.0675 | 0.0543 |  | 0.0709 |  |
| W212Y |  | 0.0476 | 0.094 |  | 0.131 |  |  | 0.0657 | 0.0635 | 0.0703 |  | 0.0697 |  |  | 0.0661 | 0.0853 | 0.0662 | 0.0909 | 0.0652 |
| W212H |  | 0.0763 | 0.0624 | 0.0594 |  |  | 0.0431 |  | 0.0559 | 0.0592 |  | 0.0514 |  |  |  | 0.0483 |  |  | 0.057 |
| R51E | 0.13 | 0.0595 | 0.0719 | 0.0689 | 0.111 | 0.0697 | 0.0846 | 0.0698 |  | 0.0578 | 0.0568 | 0.0649 |  | 0.15 |  |  | 0.0623 | 0.0802 |  |
| A207F | 0.0672 | 0.0693 |  | 0.0946 | 0.114 | 0.0883 | 0.071 | 0.0492 | 0.066 |  | 0.0582 |  |  | 0.0955 | 0.0831 | 0.0797 | 0.0539 |  | 0.0566 |
| T31Y | 0.0732 | 0.0581 | 0.0549 | 0.057 | 0.1 | 0.0649 |  | 0.0894 | 0.0641 | 0.079 | 0.0495 | 0.0539 |  |  | 0.0799 |  |  |  | 0.0958 |
| T233I |  | 0.0666 | 0.0548 |  |  |  | 0.0979 | 0.0605 |  | 0.0826 | 0.06 |  | 0.0724 | 0.111 |  | 0.0783 |  |  | 0.0754 |
| T233F | 0.0755 | 0.0669 | 0.067 | 0.0654 | 0.0934 | 0.0329 | 0.0599 | 0.0892 | 0.0623 | 0.0529 |  | 0.0572 |  |  |  | 0.0893 | 0.0746 | 0.0701 |  |
| G8H | 0.0913 |  | 0.07 | 0.0737 |  |  |  | 0.087 | 0.0844 | 0.0685 |  |  | 0.0753 | 0.166 |  |  |  |  |  |
| R10A | 0.0795 | 0.0585 |  |  | 0.0999 |  |  |  | 0.0732 |  |  | 0.0655 |  |  | 0.0752 |  |  |  | 0.0587 |
| E231D |  | 0.0663 | 0.0529 |  |  |  |  | 0.178 | 0.0637 |  |  |  |  |  |  | 0.0852 | 0.0685 | 0.0861 | 0.0807 |
| K216Y | 0.0531 | 0.0659 | 0.129 | 0.0701 | 0.0828 | 0.0637 | 0.078 | 0.0885 | 0.0572 | 0.0571 |  | 0.0587 |  | 0.0524 |  | 0.0426 | 0.059 |  |  |
| G2P | 0.091 | 0.0622 | 0.0682 | 0.0694 | 0.134 | 0.0597 |  |  |  |  | 0.0737 |  |  | 0.146 | 0.106 |  | 0.0621 | 0.0645 | 0.0469 |
| C20I | 0.0869 | 0.0608 | 0.0701 | 0.0715 | 0.118 | 0.0721 |  | 0.0894 | 0.0718 | 0.0643 | 0.0531 | 0.0633 | 0.0879 | 0.0651 | 0.0838 |  | 0.0685 | 0.0802 | 0.0718 |
| Q234P |  |  | 0.0722 | 0.05 | 0.107 | 0.0585 |  | 0.0566 | 0.0721 | 0.0798 | 0.0555 | 0.0685 | 0.0843 | 0.0931 | 0.0749 | 0.0718 |  | 0.0712 |  |
| N206M |  |  |  |  |  |  |  |  |  | 0.092 | 0.061 |  | 0.0791 |  | 0.0607 | 0.0047 |  |  |  |
| N206V | 0.08 |  | 0.0668 |  | 0.121 |  |  |  | 0.0529 | 0.0591 |  | 0.0666 |  | 0.0103 | 0.0525 | 0.0482 |  | 0.0657 |  |
| N206D |  | 0.067 | 0.0731 | 0.0628 |  | 0.061 |  | 0.103 | 0.0729 | 0.0625 |  | 0.0606 | 0.0907 | 0.104 | 0.127 | 0.0975 | 0.0701 | 0.0823 | 0.0696 |
| F218Q |  | 0.0592 | 0.0616 |  | 0.0719 | 0.0734 | 0.0672 | 0.0552 | 0.0561 | 0.0715 | 0.0615 | 0.0257 | 0.0716 | 0.0989 | 0.0517 | 0.0602 | 0.0653 |  |  |
| R50A | 0.0866 | 0.0649 | 0.0752 | 0.0724 |  | 0.051 |  | 0.0837 | 0.0715 | 0.0551 | 0.0792 | 0.0627 | 0.0762 |  | 0.0564 |  |  | 0.0785 |  |
